ChEMBL document CHEMBL4888484, “Replenishing the malaria drug discovery pipeline: Screening and hit evaluation of the MMV Hit Generation Library 1 (HGL1) against asexual blood stage Plasmodium falciparum ,using a nano luciferase reporter read-out” (2022)
Screen size: about 150,000 compounds; about 540 (0.36%) showed an effect of 50% or more. The list shows a part of the results.

tested on: Plasmodium falciparum; experiment: Primary screen in NF54 nanoGlo assay, in single point, at 2uM, 72h; a lower Z score goes with more inhibition; type: functional, Erythrocyte; settings: timepoint 72 hour

SMILES	% Inhibition	Z score
COC(=O)N1CCC[C@H](c2nccn2CC2CCC2)C1	-7%	1.3
CCCN(C(=O)c1ccon1)C1CC(OCC)C1(C)C (stereo unspecified)	-11%	1.44
O=C(N[C@H](c1cccnc1)C(F)(F)F)c1cn(CC2CCCCC2)nn1	-10%	1.79
CN(C)c1ccc(CNC(=O)c2cc(S(=O)(=O)N3CCCCCC3)ccc2Cl)cc1	-1%	0.08
O=C(C[C@@H]1NC(=O)NC1=O)Nc1nc2ccccc2s1	0%	-0.01
CN1CC[C@@H](c2nc(-c3cccnc3OCC(F)F)no2)S1(=O)=O	2%	-0.23
C=C(C)CN(CC)C(=O)CN1CCCC(C2(C)NC(=O)NC2=O)C1 (stereo unspecified)	-7%	1.14
COCCOCc1ncnn1-c1ccc(Cl)cc1C	-12%	2.14
O=C1[C@@H]2Cc3c([nH]c4ccccc34)C(c3ccccc3)N2C(=O)CN1C1CCCCC1 (stereo partly specified)	-8%	1.52
Cc1nc(CCC(=O)N(c2cccnc2)C(C)C)oc1-c1ccccc1	-1%	0.17
CNC(=O)NCC(=O)NC(C)(C)Cc1cccc(Br)c1	-10%	0.85
CCN1C[C@@H](NC(=O)c2cccc(C(=O)NC3CC3)c2)CC1=O	-5%	0.91
CCCCn1nc(C)nc1Cc1c(C)nc(CC)[nH]c1=O	9%	-1.77
CCn1cc(CN2CCN(Cc3ccccc3)[C@H]3CS(=O)(=O)C[C@H]32)cn1	0%	0.09
Cc1cc(CN2CCC(=O)N(C)CC2)c(C)c(CN2CCCC[C@@H]2C)c1	6%	-0.63
COc1ccc([C@H](c2n(Cc3ccccc3)c(C)c(C)[n+]2[O-])C2C(=O)OC(C)(C)OC2=O)cc1CO	-9%	1.11
C[C@@H](CNC(=O)C(C)(C)C)c1ccccc1	-10%	0.9
CCOC1CC(NC(=O)Nc2cccnc2)C1(C)C (stereo unspecified)	-4%	0.61
COc1ccccc1OC1(C(=O)O)CCN(CC2CC2)CC1	-13%	2.52
Cc1cc(C(=O)N[C@@H](C)C(N)=O)ccc1F	-1%	0.09
O=C(NCCCN1CCOCC1)c1ccc(N2C[C@H]3C[C@H](C2)[C@H]2CCCC(=O)N2C3)nc1	0%	0.03
O=C(Cn1c(-c2cccs2)cc2ccccc21)NC1CCN(Cc2ccccc2)CC1	3%	-0.31
CC1=C(C(=O)c2ccccc2)[C@@](NC(=O)c2cccc(C(F)(F)F)c2)(C(F)(F)F)C(=O)N1CCc1ccc(F)cc1	14%	-1.51
